This note sets out measurements from the supplement of paper PMC11417369.

± gives the standard deviation of the averaged measurements. The list shows a part of the results.

The assay has as its system PfAP2-G AP2 domain (GST-tagged). The experiment in a line: gcPBM binding intensity (ln(normalized median fluorescence intensity)); higher = stronger DNA binding. The procedure, abridged:
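Binding intensity values are the highest Masliner-normalised natural-log median intensity among replicate spots of either probe orientation. The binding step lasted 1 h in 1× PBS with 1% milk, 0.2 mg/ml BSA, 0.5% salmon testes DNA and 0.03% Triton X-100, using GST-tagged P. falciparum DNA-binding domains expressed in E. coli on an Agilent 4 × 180k array of primer-extended double-stranded 36-bp intergenic genomic probes plus negative controls. Alexa488 anti-GST antibody and a 488 nm scan detected bound protein.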
For “TTTATATTAAAATATTGTACGGACATTATTTTGTAA [XGTACX_site8128]”, the “gcPBM binding intensity (ln)” value is 11.4 ± 0.8.
The value for ACACACAATACAAAAGTGCATATAATAATTAATCAT was 10.1 ± 0.18.
For the sequence “ATACATCGTATATAAGTGCATATTAAGGTCTTAAGA [GTGCAC_site9560]”, the “gcPBM binding intensity (ln)” value amounted to 10 ± 0.12.
The value for “GAACATTTGAAATATGCACACATGTATAAACATACA [CACACA_site5463]” was 10.1 ± 0.11; that for “TATATATGTATCAAGTGTACAGTTTTAAAAAAAAAA [XGTACX_site6011]” was 11.4 ± 0.87.
With TATTGACATATATTAGTGCAATAATGAAATCAAGTA, the “gcPBM binding intensity (ln)” value was 10 ± 0.13.
The value for “CATATTATTCTTTTCACACACGCGTTAATAATAATC [CACACA_site3931]” was 10.3 ± 0.2; that for “TATTTCATTAATGTCACTTTGAAAGAAATGAAAAAA [CACACA_negctrl_site1803]” was 10.1 ± 0.46.
The value for “AAAAAAAAAAGACACACACACAAAATAAACAAACAA [CACACA_site7308]” was 10.2 ± 0.18.
The value for “TGTTTTTAAAAAAAAAAAAAATCACACCGGCAGGTA [CACACA_negctrl_site1437]” was 9.82 ± 0.15.
Regarding “TGCGTATATATATACACACACATATATATATTTTAA [CACACA_site1952]”, the “gcPBM binding intensity (ln)” value came to 9.92 ± 0.11.
For CTAAATTATAGATCAGTGCAATTTAATATGAGTCCA the value was 10.4 ± 0.21; for “AAAAAAAAAAAAAACACACACATACAGACAAAAATG [CACACA_site83]”, 10.3 ± 0.33.
On to “CCATAAAAATATAATACACACATATATATTAACATA [CACACA_site4102]”, for which the “gcPBM binding intensity (ln)” value was 10 ± 0.23.
The value for “AGGTGAGCTCAGACTACACACACAAAGAAAAAAATA [CACACA_site8439]” was 10.2 ± 0.28; that for “TTGTAATTATTAAACACACACAAAATATATATAATA [CACACA_site2523]” was 10.3 ± 0.18.
For “TTTTTAAAGGTGATAAAACACACGATTTAGAAATGT [CACACA_site3160]” the value was 10.1 ± 0.16.
Regarding “CCCACAGACAAAAACACACACAAAGGTGTTCTTATA [CACACA_site4840]”, the “gcPBM binding intensity (ln)” value turned out to be 9.865 ± 0.021.
The value for “AAGAGAAAAAGAATGAAAGAAAAAAAAAAAAAATAT [CACACA_negctrl_site1527]” was 9.54 ± 0.028; that for “TTATCGACCAATAAAGCATGCAAAAAAAAAAAAAAA [TGCATGCA_site788]” was 10.3 ± 0.73; that for “CTACATAAAAAAATATGTACATATATATATATATAT [XGTACX_site667]” was 11.2 ± 0.59.
For “TAATGAAAATATATAACACACAAAAGTTATAAATAT [CACACA_site1189]” the value was 9.775 ± 0.064; for “TTTAATATAACTATTTGTACATAAAGAATATAAATA [XGTACX_site4594]”, 10.7 ± 0.42; for “TTTTTTTGCCATATTACACACACACGGGTAAACCCC [CACACA_site6874]”, 10.5 ± 0.42.
For “TAAATTTTTATTTGTAGTACTATATATATATATATA [XGTACX_site1026]” the value was 11.2 ± 0.79; for “GTGTTGAATTATGTGCTTTTTTCTTTCTACTCAGTA [XGTACX_negctrl_site464]”, 10.3 ± 0.11.
Consider “TATTATTTTTTTATTCTATTAAAAAGAAAAAAATGA [CACACA_negctrl_site407]”, for which the “gcPBM binding intensity (ln)” value came to 9.84 ± 0.3.
For “AATTTATTTTTAAAAAGTACATACTTAAGAAAACGA [XGTACX_site3660]” the value was 11.4 ± 0.79.
For the sequence “ATATTTTATATTTCTTGTACATATATTTGTAGATAT [XGTACX_site1140]”, the “gcPBM binding intensity (ln)” value stood at 11.1 ± 0.64.
For “TTTCTTACAACAACAACAAAAAAAAATAAATAAAAT [GTGCAC_negctrl_site711]” the value was 9.91 ± 0.16; for “AAACAAATAAAATTTATTAAAAAGGTCATATTATTA [CACACA_negctrl_site85]”, 10.2 ± 0.13.
The value for “AGAAAAAAAAATTATACATGCATATACGTTTATTTT [TGCATGCA_site529]” was 9.76 ± 0.2; that for “TCGACAATTTTATAAAGTACTTATTAGAAATATGAA [XGTACX_site7133]” was 11.1 ± 0.75; that for “CCATTTAAAACATTTTGTACTTATTTTACATTTCTG [XGTACX_site4270]” was 11.2 ± 0.61.
For “GATTCATTTCATAATACACACAACAAATATTTCAAA [CACACA_site120]” the value was 10.1 ± 0.3.
Turning to “ATAAAAAAAAGACACACACACATATATATATATATA [CACACA_site3073]”, the “gcPBM binding intensity (ln)” value is 10 ± 0.17.
For “TCAACACACGTGGAATGTACTTTAGTATAAGAATTC [XGTACX_site7842]” the value was 10.9 ± 0.47; for “TAAATATATTTCATGACATGCAACTTGTTTTTTTGT [TGCATGCA_site456]”, 9.79 ± 0.17; for “ATATATATATTTTATGCATGTTCATTTTCTATATTT [TGCATGCA_site442]”, 9.7 ± 0.19.
On to ATAATATATACGTGTGTGCACATGACAAAAGCATAT, for which the “gcPBM binding intensity (ln)” value was 10.6 ± 0.18.
The value for “GTTAATGTGGTTACTTGTACATATTAACGTCTTTTT [XGTACX_site2617]” was 11 ± 0.61; that for “AAAAAAAAAATATACACACACATATATATATATATA [CACACA_site3404]” was 9.96 ± 0.37; that for “TATATATATATATAAACACACATAAATATAAATATA [CACACA_site1121]” was 10.04 ± 0.092.
As for “TCTTTTACAAAAGCTATAACATTCACCACATTATAA [GTGCAC_negctrl_site133]”, the “gcPBM binding intensity (ln)” value worked out at 10.01 ± 0.028.
With “ACCACATAAAACAAATGTACTTGAAATATATGCGTA [XGTACX_site5155]”, the “gcPBM binding intensity (ln)” value is 10.9 ± 0.61.
On to “ATGTATATGATTAAATGTACGTAAACAAATTTGTAA [XGTACX_site8174]”, for which the “gcPBM binding intensity (ln)” value was found to be 11.4 ± 1.
For “CAAAGGGAAATTAACACACACATATTTATATTTATA [CACACA_site7202]” the value was 9.77 ± 0.085.
As to “TATTAATAAATTTATAAAACAGGTATATATATATAT [CACACA_negctrl_site615]”, the “gcPBM binding intensity (ln)” value was found to be 10.1 ± 0.41.
For “AAGAAAACTTAAAATAAAAGCATATTTTATCTTACA [TGCATGCA_negctrl_site366]”, the “gcPBM binding intensity (ln)” value turned out to be 9.57 ± 0.085.
For “TGCAGTCTGGAGAAGAGTACATAGTATCTGGTAGCT [XGTACX_site2021]” the value was 11.3 ± 0.78; for “ATATATATATATATATGTACACACATCAATCATATT [XGTACX_site4005]”, 11.4 ± 0.88; for “AGAGTACAAGTAAATACACACATATAGATGAAAATA [CACACA_site6635]”, 10.8 ± 0.57.
The value for “ATCTATATAATATATACACACAAATATACAAAAAAA [CACACA_site1013]” was 10 ± 0.11; that for “TACATGCATTTCTCATGTACATAATTTTCCCATATT [XGTACX_site5158]” was 11 ± 0.47; that for “ATAAATTAAAGACACACACACATCTGGATACCCCTA [CACACA_site7546]” was 11.1 ± 0.65.
For “TTATATTATATATATAGTACACATGTAATATTTCAA [XGTACX_site1791]” the value was 11.1 ± 0.76.
On to “TATTGTAGAGGCAAAAGTACACATTTAATAATTTCC [XGTACX_site1151]”, for which the “gcPBM binding intensity (ln)” value is 11.4 ± 0.73.
